Measurements: publication PMC4336329 (PLoS ONE, 2015)
About 2,200 (0.71%) of roughly 310,000 compounds showed an effect of 50% or more. The effect is printed as a negative number. This is one part of the list.

Molecular target: human ether-à-go-go-related gene (hERG) potassium channel (human, UniProt Q12809)
Assay: primary screen, population patch clamp on CHO cells stably expressing hERG

Chain of human ether-à-go-go-related gene (hERG) potassium channel (Q12809 whole entry, looked up): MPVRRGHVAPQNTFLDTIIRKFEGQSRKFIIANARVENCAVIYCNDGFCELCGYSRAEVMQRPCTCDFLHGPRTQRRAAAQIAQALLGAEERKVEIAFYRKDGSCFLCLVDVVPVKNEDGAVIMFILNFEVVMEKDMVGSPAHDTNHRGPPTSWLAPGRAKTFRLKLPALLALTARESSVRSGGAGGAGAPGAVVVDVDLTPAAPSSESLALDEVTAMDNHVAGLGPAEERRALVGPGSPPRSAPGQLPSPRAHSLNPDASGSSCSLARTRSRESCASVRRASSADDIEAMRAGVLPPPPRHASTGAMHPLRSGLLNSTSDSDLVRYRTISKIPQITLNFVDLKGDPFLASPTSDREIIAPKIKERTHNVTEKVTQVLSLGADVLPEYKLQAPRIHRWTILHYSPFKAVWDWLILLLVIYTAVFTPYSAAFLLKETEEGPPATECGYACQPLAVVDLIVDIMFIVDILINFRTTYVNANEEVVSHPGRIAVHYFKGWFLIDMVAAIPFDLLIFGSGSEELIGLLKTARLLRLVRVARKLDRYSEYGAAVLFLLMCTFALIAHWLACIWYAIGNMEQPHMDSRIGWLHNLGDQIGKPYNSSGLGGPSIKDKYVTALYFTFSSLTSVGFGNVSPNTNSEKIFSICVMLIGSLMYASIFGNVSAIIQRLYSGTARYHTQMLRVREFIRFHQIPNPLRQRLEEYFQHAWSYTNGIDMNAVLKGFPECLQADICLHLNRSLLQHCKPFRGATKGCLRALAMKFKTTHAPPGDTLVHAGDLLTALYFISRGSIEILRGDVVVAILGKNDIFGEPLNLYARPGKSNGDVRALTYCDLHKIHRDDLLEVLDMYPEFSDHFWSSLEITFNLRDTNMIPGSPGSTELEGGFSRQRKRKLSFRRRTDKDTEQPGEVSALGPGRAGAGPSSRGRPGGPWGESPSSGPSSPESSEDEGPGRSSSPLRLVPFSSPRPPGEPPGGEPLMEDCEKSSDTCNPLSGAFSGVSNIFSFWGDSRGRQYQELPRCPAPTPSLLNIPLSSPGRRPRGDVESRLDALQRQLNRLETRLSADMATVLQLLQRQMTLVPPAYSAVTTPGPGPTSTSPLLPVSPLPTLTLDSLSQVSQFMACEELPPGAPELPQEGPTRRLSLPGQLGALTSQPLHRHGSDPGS

Going from `COCCOC(=O)C1=C(C)NC(C)=C(C(=O)OCCOC)C1/C=C/c1ccccc1OC` to `CCOC(=O)c1c(NC(=S)NC(=O)/C=C/c2cccs2)sc(C)c1C`, the “hERG current change (%, negative = inhibition) at 1uM” value rises from 8.08% to 13.2%.

Compared with `Cc1cc(C)c2cc(CN(Cc3cccnc3)C(=O)c3ccc(F)cc3)c(Cl)nc2c1`, `O=C1NC(Cc2ccccc2)c2nc3ccc(Cl)cc3c(=O)n2-c2cc(Cl)ccc21` (centres unmarked) is higher in “hERG current change (%, negative = inhibition) at 1uM” value: -26.4% for the first, 12.7% for the second.

Going from `CC12CN(C(=O)c3ccccc3Br)CC(C)(CN(C(=O)c3ccccc3Br)C1)C2=O` to `CN1/C(=C\C(=O)c2ccccc2Cl)c2ccccc2CC1(C)C`, the “hERG current change (%, negative = inhibition) at 1uM” value falls from 12.3% to 2.56%.

Going from `Cc1ccc(C)c(Nc2nc3ccc(C)cc3n3cnnc23)c1` to `Cc1ccc(NS(=O)(=O)c2cc([N+](=O)[O-])ccc2NNC(=S)Nc2cc(C)ccc2C)c(C)c1`, the “hERG current change (%, negative = inhibition) at 1uM” value falls from 11.2% to -4.13%.

Compared with `CC1CC(C)CN(CCOc2cccc(Cl)c2Cl)C1.O=C(O)C(=O)O` (centres unmarked), `CC1CC(C)CN(C(=O)CCCn2c(=S)[nH]c3ccccc3c2=O)C1` (centres unmarked) is lower in “hERG current change (%, negative = inhibition) at 1uM” value: 11.4% for the first, -0.582% for the second.

Compared with `COc1ccc(OCC(=O)Nc2cc3oc4ccccc4c3cc2OC)cc1`, `CC(=O)N1N=C(C)CC1c1ccc(OCc2ccccc2)cc1` (centres unmarked) is lower in “hERG current change (%, negative = inhibition) at 1uM” value: 17.1% for the first, 5.87% for the second.

First: O=C(Nc1ccc2c(c1)OCCO2)c1cc2ccccc2o1
Second: NC(=O)Nc1ccc2c(c1)OCCO2
The “hERG current change (%, negative = inhibition) at 1uM” value of the first is higher: 12.2% for the first, 6.12% for the second.

Compared with `Cc1ccccc1CS(=O)(=O)CCC(=O)NCc1ccccn1`, `COC(=O)c1ccccc1NC(=O)CCCN1C(=O)C(c2ccccc2)Oc2cccnc21` (centres unmarked) is higher in “hERG current change (%, negative = inhibition) at 1uM” value: 18.4% for the first, 27.7% for the second.

First: CC(=O)N1CCN(C(=O)c2ccc(Oc3ccccc3)cc2)CC1
Second: CC1(C)C(C=C(Cl)Cl)C1C(=O)OCc1cccc(Oc2ccccc2)c1 (centres unmarked)
The “hERG current change (%, negative = inhibition) at 1uM” value of the first is lower: 10.8% for the first, 13.7% for the second.

Going from `O=C(NCc1ccc(F)cc1)C1CCCN(S(=O)(=O)c2cccc3nonc23)C1` (centres unmarked) to `Cc1nn(-c2ccccc2)c(C)c1C(=O)NCc1ccc(S(N)(=O)=O)cc1`, the “hERG current change (%, negative = inhibition) at 1uM” value rises from 17.9% to 20.3%.

Going from `CCN1CCN(C/C(C)=C/c2ccccc2)CC1` to `CCCc1ccc(OCC(O)CN2CCN(C(=O)OCC)CC2)cc1.Cl` (centres unmarked), the “hERG current change (%, negative = inhibition) at 1uM” value falls from 11.3% to -5.38%.

First: COCCCNC(=S)N1CCN(c2ccc([N+](=O)[O-])cc2)CC1
Second: COc1ccc(N2CCN(C(c3cccs3)C(C)NC(=O)C(=O)N3CCCCC3)CC2)cc1 (centres unmarked)
The “hERG current change (%, negative = inhibition) at 1uM” value of the first is lower: -64.8% for the first, 5.19% for the second.

Going from `CCN(Cc1ccccc1)C(=O)C(C)OC(=O)c1cc(S(=O)(=O)Nc2c(C)n(C)n(-c3ccccc3)c2=O)ccc1C` (centres unmarked) to `O=C(COC(=O)c1cccc(Br)c1)NCCc1ccccc1`, the “hERG current change (%, negative = inhibition) at 1uM” value rises from -3.23% to 4.47%.

Going from `O=[N+]([O-])c1ccc(-c2cnc(NO)nc2)cc1` to `CCOC(=O)C1=C(N)Oc2cc(O)ccc2C1c1cccc([N+](=O)[O-])c1` (centres unmarked), the “hERG current change (%, negative = inhibition) at 1uM” value rises from 15.7% to 22%.

Compared with `CCCCn1c(N)c(N(CCOC)C(=O)CSc2nnc(-c3ccncc3)n2CCC)c(=O)[nH]c1=O`, `CCOC(=O)N1CCN(S(=O)(=O)c2ccc3c(c2)CCN3C(=O)CC)CC1` is lower in “hERG current change (%, negative = inhibition) at 1uM” value: 7.38% for the first, 6.11% for the second.

Compared with `Cc1cccc(OCCNC(=O)c2ncn[nH]2)c1`, `Cn1nc(C(F)(F)F)c(-c2cccc(C(F)(F)F)c2)c1NC(=O)c1cccnc1` is higher in “hERG current change (%, negative = inhibition) at 1uM” value: -7.55% for the first, 5.38% for the second.

First: Cc1ccc(Cn2cnc3ccccc32)cc1C
Second: Oc1c(C=NCc2ccncc2)sc2ccccc12
The “hERG current change (%, negative = inhibition) at 1uM” value of the first is higher: 8.15% for the first, 6.72% for the second.

Going from `O=C(Nc1cccc(NC(=O)C2CC3CCCC(C2)C3=O)n1)C1CC2CCCC(C1)C2=O` (centres unmarked) to `O=C(CSC1CCCCC1)Nc1ccccc1Br`, the “hERG current change (%, negative = inhibition) at 1uM” value falls from 7.2% to 6.47%.

Going from `O=C(C[n+]1cc2ccccc2c2ccccc21)c1ccccc1.[Br-]` to `O=C(CN1C(=O)NC2(CCc3ccccc32)C1=O)c1c[nH]c2ccccc12` (centres unmarked), the “hERG current change (%, negative = inhibition) at 1uM” value rises from -41.7% to 18.9%.

Going from `O=C1CCCc2nc(NCc3ccco3)ncc21` to `O=C(c1ccc2nc(Cc3cccc(Cl)c3)oc2c1)N1CCOCC1`, the “hERG current change (%, negative = inhibition) at 1uM” value falls from 26.8% to 8.64%.

Compared with `COc1ccc(C2=CC(=O)C[C@H](c3ccc(Cl)cc3)C2)cc1`, `Cc1ccc(NC(=O)CN2C(=O)S/C(=C\c3ccc(C(=O)O)cc3)C2=O)cc1` is higher in “hERG current change (%, negative = inhibition) at 1uM” value: 6.18% for the first, 20.1% for the second.

First: Cc1cc([N+](=O)[O-])c(C(C)(C)C)cc1N
Second: Cc1ccc(N(C)S(=O)(=O)c2cccc(C(=O)NNC(=O)c3ccncc3)c2)cc1
The “hERG current change (%, negative = inhibition) at 1uM” value of the first is lower: 6.92% for the first, 13.8% for the second.
